Results taken from the supplement of paper PMC4604168 (melanoma cell lines).
This is one part of the list. Many values rest on one well or one pass, so single values are uncertain.

Assays:
Assay in all cases: cell count relative to DMSO control; melanoma cells; higher = more viable cells
Settings in all cases: library dose: low library concentration; 72 h
MeWo = test system: MeWo
RPMI7951 = test system: RPMI7951
RVH-421 = test system: RVH-421
SkMel28 = test system: SkMel28
SkMel2 = test system: SkMel2
SkMel30 = test system: SkMel30
SkMel5 = test system: SkMel5
UACC257 = test system: UACC257
UACC62 = test system: UACC62
MZ2-MEL = test system: MZ2-MEL
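Note: cell number obtained by counting DAPI-stained nuclei in high-throughput microscope images with image analysis software, screen run in 1,536-well plates.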

Row | SMILES | cell count (MeWo) | cell count (RPMI7951) | cell count (RVH-421) | cell count (SkMel28) | cell count (SkMel2) | cell count (SkMel30) | cell count (SkMel5) | cell count (UACC257) | cell count (UACC62) | cell count (MZ2-MEL)
1 | O=C(O)c1ccc2c(c1)nc(Nc1cccc(Cl)c1)c1ccncc12 + Cc1cc([N+](=O)[O-])ccc1NS(=O)(=O)c1cc(Cl)ccc1Cl [FH535] (first compound 0.4 µM, partner dose 1 µM) | 98% | 114% | 100% | 97.4% | 96.2% | 84.2% | 91.7% | 77.1% | 87.7% | 
2 | O=C(Nc1cc(C(F)(F)F)cc(C(F)(F)F)c1)c1cc(Cl)ccc1O + Nc1ccn([C@@H]2O[C@H](CO)[C@@H](O)C2(F)F)c(=O)n1 [gemcitabine] (first compound 0.016 µM, partner dose 0.0004 µM) | 103% | 73.3% | 117% | 90.5% |  | 107% |  |  | 99.4% | 
3 | O=C(Nc1cc(C(F)(F)F)cc(C(F)(F)F)c1)c1cc(Cl)ccc1O + CC(=O)O[C@@]12CO[C@@H]1C[C@H](O)[C@@]1(C)C(=O)[C@H](O)C3=C(C)[C@@H](OC(=O)[C@H](O)[C@@H](NC(=O)OC(C)(C)C)c4ccccc4)C[C@@](O)([C@@H](OC(=O)c4ccccc4)[C@H]21)C3(C)C [Docetaxel] (first compound 0.016 µM, partner dose 0.0001 µM) | 54.2% | 51.5% | 78.7% | 67.7% |  | 53.5% |  |  | 48.6% | 
4 | O=C(O)c1ccc2c(c1)nc(Nc1cccc(Cl)c1)c1ccncc12 + c1cc(-c2cnn3cc(-c4ccc(OCCN5CCCCC5)cc4)cnc23)ccn1 [Dorsomorphin] (first compound 0.4 µM, partner dose 0.4 µM) | 78.3% | 109% | 101% | 92.9% |  | 84.1% | 93.7% | 76.9% | 94.7% | 
5 | O=C(Nc1cc(C(F)(F)F)cc(C(F)(F)F)c1)c1cc(Cl)ccc1O + C[C@]1(c2nc3c(C(N)=O)cccc3[nH]2)CCCN1 [Veliparib] (first compound 0.016 µM, partner dose 1.4 µM) | 86.5% | 85.7% | 100% | 84.3% |  | 105% |  |  | 83.6% | 
6 | O=C(O)c1ccc2c(c1)nc(Nc1cccc(Cl)c1)c1ccncc12 + Cn1cc(/C=C2\C(=O)Nc3cccnc32)c2ccccc21 [GW441756] (first compound 0.4 µM, partner dose 0.4 µM) | 102% | 103% | 99.8% | 102% |  | 99.1% | 82.5% | 85.1% | 89.4% | 
7 | Cc1cc(N2CCOCC2)cc2[nH]c(-c3c(NC[C@@H](O)c4cccc(Cl)c4)cc[nH]c3=O)nc12 + Oc1nc(-c2ccc(C(F)(F)F)cc2)nc2c1CSCC2 [XAV939] (first compound 0.2 µM, partner dose 2 µM) | 99.5% | 95.7% | 100% | 91.5% |  | 109% | 91.1% | 77% | 92.4% | 
8 | O=C(Nc1cc(C(F)(F)F)cc(C(F)(F)F)c1)c1cc(Cl)ccc1O + Cn1cc(/C=C2\C(=O)Nc3cccnc32)c2ccccc21 [GW441756] (first compound 0.016 µM, partner dose 0.4 µM) | 106% | 98.5% | 92.2% | 91.1% | 100% | 114% | 76.2% | 83.1% | 93.5% | 
9 | O=C(O)[C@@H]1[O][Sb](=[O])([O][Sb]2(=[O])[O][C@H]([C@H](O)CO)[C@H](O)[C@H](C(=O)O)[O]2)[O][C@H]([C@H](O)CO)[C@@H]1O (stereo partly specified) [stibogluconate] + N#Cc1c(O)c2c(-c3ccc(-c4ccccc4O)cc3)csc2[nH]c1=O [A769662] (first compound 2 µM, partner dose 2 µM) | 104% | 99.5% | 103% | 93.9% | 110% | 131% | 96.9% | 107% | 98.3% | 
10 | O=C(Nc1cc(C(F)(F)F)cc(C(F)(F)F)c1)c1cc(Cl)ccc1O + Cc1cc([N+](=O)[O-])ccc1NS(=O)(=O)c1cc(Cl)ccc1Cl [FH535] (first compound 0.016 µM, partner dose 1 µM) | 94.1% | 95.3% | 86.9% | 90.3% | 98.8% | 98.6% | 78.6% | 76% | 85.7% | 
11 | O=C(Nc1cc(C(F)(F)F)cc(C(F)(F)F)c1)c1cc(Cl)ccc1O + C=CCn1c(=O)c2cnc(Nc3ccc(N4CCN(C)CC4)cc3)nc2n1-c1cccc(C(C)(C)O)n1 [MK1775] (first compound 0.016 µM, partner dose 0.02 µM) | 92.3% | 113% | 98% | 85.7% | 100% | 97.2% | 89.9% | 84.9% | 92.4% | 
12 | O=C(O)c1ccc2c(c1)nc(Nc1cccc(Cl)c1)c1ccncc12 + C#Cc1cccc(Nc2ncnc3cc(OCCOC)c(OCCOC)cc23)c1 [erlotinib] (first compound 0.4 µM, partner dose 0.8 µM) | 84.8% | 91.1% | 121% | 123% | 95.7% | 72.3% |  |  | 80.2% | 
13 | O=C(Nc1cc(C(F)(F)F)cc(C(F)(F)F)c1)c1cc(Cl)ccc1O + Nc1ncn([C@H]2C[C@H](O)[C@@H](CO)O2)c(=O)n1 [decitabine] (first compound 0.016 µM, partner dose 0.1 µM) | 100% | 75.4% | 80.5% | 101% |  | 93.4% |  |  | 76.3% | 
14 | O=C(Nc1cc(C(F)(F)F)cc(C(F)(F)F)c1)c1cc(Cl)ccc1O + COc1ccc2c(c1)CCC1C2CCC2(C)C(NCCCCCCN3C(=O)C=CC3=O)CCC12 [U73122] (first compound 0.016 µM, partner dose 0.4 µM) | 104% | 85.8% | 89.4% | 86.6% | 103% | 126% | 98.1% | 124% | 98.6% | 
15 | O=C(Nc1ccccc1)c1cc([N+](=O)[O-])ccc1Cl + COc1ccc(-c2ccc3c(N4CCOCC4)nc(N4C[C@@H](C)O[C@@H](C)C4)nc3n2)cc1CO [KU0063794] (first compound 2 µM, partner dose 0.02 µM) | 85.1% | 105% | 104% | 92.5% |  | 109% | 85.7% | 87.4% | 91.2% | 
16 | O=C(O)[C@@H]1[O][Sb](=[O])([O][Sb]2(=[O])[O][C@H]([C@H](O)CO)[C@H](O)[C@H](C(=O)O)[O]2)[O][C@H]([C@H](O)CO)[C@@H]1O (stereo partly specified) [stibogluconate] + O=S(=O)(c1ccccc1)N(CC(F)(F)F)c1ccc(C(O)(C(F)(F)F)C(F)(F)F)cc1 [T0901317] (first compound 2 µM, partner dose 1.4 µM) | 106% | 128% | 91.3% | 118% | 91.1% | 106% | 105% | 129% | 91.2% | 
17 | O=C(O)[C@@H]1[O][Sb](=[O])([O][Sb]2(=[O])[O][C@H]([C@H](O)CO)[C@H](O)[C@H](C(=O)O)[O]2)[O][C@H]([C@H](O)CO)[C@@H]1O (stereo partly specified) [stibogluconate] + Clc1ccc(Nc2nnc(Cc3ccncc3)c3ccccc23)cc1 [vatalanib] (first compound 2 µM, partner dose 2 µM) | 89.5% | 112% | 112% | 105% |  | 113% |  |  | 106% | 89.7%
18 | O=C(Nc1cc(C(F)(F)F)cc(C(F)(F)F)c1)c1cc(Cl)ccc1O + CCCCCCCCc1ccc(CCC(N)(CO)CO)cc1 [fingolimod] (first compound 0.016 µM, partner dose 2 µM) | 92.4% | 99.2% | 88.6% | 91.1% |  | 119% |  |  | 102% | 94.5%
19 | Cc1cc(N2CCOCC2)cc2[nH]c(-c3c(NC[C@@H](O)c4cccc(Cl)c4)cc[nH]c3=O)nc12 + Oc1cc(-c2nc(-c3ccccc3)[nH]c2-c2ccncc2)ccc1Cl [L779450] (first compound 0.2 µM, partner dose 0.2 µM) | 95% | 93% | 72.5% | 75.2% |  | 109% | 108% | 91.1% | 55.3% | 
20 | O=C(O)[C@@H]1[O][Sb](=[O])([O][Sb]2(=[O])[O][C@H]([C@H](O)CO)[C@H](O)[C@H](C(=O)O)[O]2)[O][C@H]([C@H](O)CO)[C@@H]1O (stereo partly specified) [stibogluconate] + Cn1cncc1[C@@](N)(c1ccc(Cl)cc1)c1ccc2c(c1)c(-c1cccc(Cl)c1)cc(=O)n2C [tipifarnib] (first compound 2 µM, partner dose 0.01 µM) | 102% | 116% | 83% | 101% | 88.5% | 122% | 107% | 73.7% | 73.3% | 
21 | Cn1nnc2c(C(N)=O)ncn2c1=O [temozolomide] + Oc1nc(-c2ccc(C(F)(F)F)cc2)nc2c1CSCC2 [XAV939] (first compound 2 µM, partner dose 2 µM) | 92.3% | 86.3% | 82.8% | 77.6% |  | 106% | 87.6% | 83% | 64.4% | 
22 | O=C(O)[C@@H]1[O][Sb](=[O])([O][Sb]2(=[O])[O][C@H]([C@H](O)CO)[C@H](O)[C@H](C(=O)O)[O]2)[O][C@H]([C@H](O)CO)[C@@H]1O (stereo partly specified) [stibogluconate] + C[C@]1(c2nc3c(C(N)=O)cccc3[nH]2)CCCN1 [Veliparib] (first compound 2 µM, partner dose 1.4 µM) | 95.4% | 83.6% | 109% | 89.8% |  | 91.7% |  |  | 86.9% | 101%
23 | Cn1nnc2c(C(N)=O)ncn2c1=O [temozolomide] + O=S(=O)(c1ccccc1)N(CC(F)(F)F)c1ccc(C(O)(C(F)(F)F)C(F)(F)F)cc1 [T0901317] (first compound 2 µM, partner dose 1.4 µM) | 121% | 113% | 92.7% | 68.9% |  | 95.7% | 82.7% | 84.1% | 81% | 87.2%
24 | O=C(O)[C@@H]1[O][Sb](=[O])([O][Sb]2(=[O])[O][C@H]([C@H](O)CO)[C@H](O)[C@H](C(=O)O)[O]2)[O][C@H]([C@H](O)CO)[C@@H]1O (stereo partly specified) [stibogluconate] + CO[C@H]1C[C@@H]2CC[C@@H](C)[C@@](O)(O2)C(=O)C(=O)N2CCCC[C@H]2C(=O)O[C@H]([C@H](C)C[C@@H]2CC[C@@H](OCCO)[C@H](OC)C2)CC(=O)[C@H](C)/C=C(\C)[C@@H](O)[C@@H](OC)C(=O)[C@H](C)C[C@H](C)/C=C/C=C/C=C/1C [everolimus] (first compound 2 µM, partner dose 0.02 µM) | 77.5% | 102% | 85% | 45.5% |  | 68.7% |  |  | 74.5% | 80.5%
25 | O=C(Nc1cc(C(F)(F)F)cc(C(F)(F)F)c1)c1cc(Cl)ccc1O + CCCCCCCCCCCC1=C(O)C(=O)C=C(O)C1=O [Embelin] (first compound 0.016 µM, partner dose 1.2 µM) | 102% | 104% | 94.5% | 102% |  | 104% | 93.5% | 73.5% | 93.5% | 
